Tested on: U937 cells which are chronically infected with HIV-1 (U1 cells)
Type: cell-based, human

Structure (SMILES) | % of apoptosis [%]
Cc1cn([C@H]2C[C@H](N=[N+]=[N-])[C@@H](CO)O2)c(=O)[nH]c1=O [AZT, Zinovudine] | 45 ± 2
CC(C)c1nc(CN(C)C(=O)N[C@H](C(=O)N[C@@H](Cc2ccccc2)C[C@H](O)[C@H](Cc2ccccc2)NC(=O)OCc2cncs2)C(C)C)cs1 [Ritonavir] | 15 ± 2
CC(C)(C)NC(=O)[C@@H]1C[C@@H]2CCCC[C@@H]2CN1C[C@@H](O)[C@H](Cc1ccccc1)NC(=O)[C@H](CC(N)=O)NC(=O)c1ccc2ccccc2n1 [Saquinavir] | 15 ± 2
